Experimental data taken from patent publication US20160033523A1 (NOVOZYMES BIOPHARMA DK A S, published 2016).

T1: Soluble pig FcRn with pig beta2-microglobulin, HIS-tagged (Example 4) (pig, UniProt Q07717 21-118)
T1 construct: also called pFcRn; not shown: HIS-tag on the C-terminal of the beta-chain
T1 sequence: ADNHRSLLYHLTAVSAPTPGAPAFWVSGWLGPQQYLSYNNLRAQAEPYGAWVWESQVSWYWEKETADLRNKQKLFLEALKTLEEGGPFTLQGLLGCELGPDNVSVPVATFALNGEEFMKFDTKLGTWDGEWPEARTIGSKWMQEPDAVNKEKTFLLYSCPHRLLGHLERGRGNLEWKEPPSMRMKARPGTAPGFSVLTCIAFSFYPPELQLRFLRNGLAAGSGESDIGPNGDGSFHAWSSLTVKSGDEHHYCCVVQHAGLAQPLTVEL
T1 sequence (b2m): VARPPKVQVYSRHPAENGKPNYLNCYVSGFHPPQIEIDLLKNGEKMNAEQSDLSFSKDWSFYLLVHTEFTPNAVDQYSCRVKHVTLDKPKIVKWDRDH

T2: Soluble guinea pig FcRn with guinea pig beta2-microglobulin, HIS-tagged (guinea pig, UniProt P01886 1-99)
T2 construct: Synthesized by GeneArt, expressed in HEK cells; also called gpFcRn; gpFcRN; not shown: HIS-tag on the C-terminal of the beta-chain
T2 sequence: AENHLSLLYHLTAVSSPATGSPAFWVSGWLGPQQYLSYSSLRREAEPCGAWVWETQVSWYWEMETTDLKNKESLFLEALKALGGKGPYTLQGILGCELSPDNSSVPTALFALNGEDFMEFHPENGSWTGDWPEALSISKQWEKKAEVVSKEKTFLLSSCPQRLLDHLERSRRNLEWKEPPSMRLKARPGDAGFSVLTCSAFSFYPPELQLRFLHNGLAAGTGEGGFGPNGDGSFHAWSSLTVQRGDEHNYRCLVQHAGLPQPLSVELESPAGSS
T2 sequence (b2m): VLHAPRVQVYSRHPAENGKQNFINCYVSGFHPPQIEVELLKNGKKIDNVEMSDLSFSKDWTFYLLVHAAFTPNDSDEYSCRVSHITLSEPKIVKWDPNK

B1: Wild type mouse serum albumin (ligand)
chain: not shown
notes: also called MSA; MSA Wt
B2: HSA E492G+K573P+K574H+Q580K (ligand)
chain: DAHKSEVAHRFKDLGEENFKALVLIAFAQYLQQCPFEDHVKLVNEVTEFAKTCVADESAENCDKSLHTLFGDKLCTVATLRETYGEMADCCAKQEPERNECFLQHKDDNPNLPRLVRPEVDVMCTAFHDNEETFLKKYLYEIARRHPYFYAPELLFFAKRYKAAFTECCQAADKAACLLPKLDELR[skipping about 200 residues]NLIKQNCELFEQLGEYKFQNALLVRYTKKVPQVSTPTLVEVSRNLGKVGSKCCKHPEAKRMPCAEDYLSVVLNQLCVLHEKTPVSDRVTKCCTESLVNRRPCFSALGVDETYVPKEFNAETFTFHADICTLSEKERQIKKQTALVELVKHKPKATKEQLKAVMDDFAAFVEKCCKADDKETCFAEEGPHLVAASKAALGL
notes: Variant of mature HSA
B3: N-terminally c-myc tagged albumin variant E492G+K573P+K574H+Q580K (ligand)
chain: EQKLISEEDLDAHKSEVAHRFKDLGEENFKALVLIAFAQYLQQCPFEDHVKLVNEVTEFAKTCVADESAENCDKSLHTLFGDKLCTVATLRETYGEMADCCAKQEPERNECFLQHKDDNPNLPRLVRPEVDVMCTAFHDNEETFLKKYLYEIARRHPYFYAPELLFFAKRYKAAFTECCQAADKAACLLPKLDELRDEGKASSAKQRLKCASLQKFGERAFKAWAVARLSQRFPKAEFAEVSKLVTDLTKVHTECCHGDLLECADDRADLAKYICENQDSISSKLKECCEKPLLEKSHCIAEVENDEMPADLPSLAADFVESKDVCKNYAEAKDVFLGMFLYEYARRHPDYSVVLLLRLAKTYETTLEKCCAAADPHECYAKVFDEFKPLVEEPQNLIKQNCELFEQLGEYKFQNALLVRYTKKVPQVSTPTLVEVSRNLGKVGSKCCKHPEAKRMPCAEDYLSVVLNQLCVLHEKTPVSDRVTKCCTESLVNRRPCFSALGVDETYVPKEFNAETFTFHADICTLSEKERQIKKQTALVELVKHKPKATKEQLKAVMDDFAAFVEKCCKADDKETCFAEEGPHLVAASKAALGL
notes: Substitutions numbered on mature HSA, not on the tagged chain; also called c-myc-E492G + K573P + K574H + Q580K

What was measured:
[1] = molecular target: T3, Soluble mouse FcRn, GST-tagged, with human beta2-microglobulin (mouse; Schistosoma japonicum; human, UniProt P08515 = GST); assay: SPR, albumin over immobilized GST-FcRn, pH 6.0, 1:1 model
T3 construct: also called smFcRn
Procedure: (§1) SPR experiments were carried out using a Biacore 3000 instrument (GE Healthcare). Flow cells of CM5 sensor chips were coupled with soluble FcRn from one of the following species, human (shFcRn), rat (srFcRn), mouse (smFcRn), rhesus monkey (srmFcRn), dog (dFcRn) or pig (pFcRn) (˜900-2500 resonance units (RU)) using GE Healthcare amine coupling chemistry as per the manufacturer's instructions. The coupling was performed by injecting 2 or 10 μg/ml FcRn in 10 mM sodium acetate pH 5.0 (GE healthcare). Phosphate buffer (67 mM phosphate buffer, 0.15 M NaCl, 0.005% Tween 20) at pH 6.0) was used as running buffer and dilution buffer. Regeneration of the surfaces were done using injections of HBS-EP buffer (0.01 M HEPES, 0.15 M NaCl, 3 mM EDTA, 0.005% surfactant P20) at pH 7.4 (GE Healthcare). For determination of binding kinetics, serial dilutions of albumin (10-0.3 μM) were injected over immobilized receptors at a constant flow rate (50 μl/min) at 25° C. In all experiments, data were zero adjusted and the reference cell subtracted.

[2] = molecular target: T4, Soluble rhesus monkey FcRn, GST-tagged, with human beta2-microglobulin (rhesus monkey; Schistosoma japonicum; …, UniProt P08515 = GST); assay: as above
T4 construct: also called srmFcRn; soluble rhesus macaque FcRn
Procedure: as §1

[3] = molecular target: T5, Soluble dog FcRn, GST-tagged, with human beta2-microglobulin (dog; Schistosoma japonicum; human, UniProt P08515 = GST); assay: as above
T5 construct: also called dFcRn
Procedure: as §1

[4] = molecular target: T6, Soluble pig FcRn, GST-tagged, with human beta2-microglobulin (Example 2) (pig; Schistosoma japonicum; human, UniProt P08515 = GST); assay: as above
T6 construct: also called pFcRn; spFcRn
Procedure: as §1

[5] = molecular target: T3, Soluble mouse FcRn, GST-tagged, with …; assay: SPR, albumin over immobilized GST-FcRn, pH 6.0, steady state
Procedure: as §1

[6] = molecular target: T1, Soluble pig FcRn with pig …; assay: SPR, pH 5.5; affinity against PSA on pig FcRn
Procedure: as §1
(§2) The SPR assay was conducted with the following variations to the assay described in the Materials and Method section:
(§3) The soluble FcRn receptors were synthesized by GeneArt and expressed in HEK cells. […]

[7] = molecular target: T1, Soluble pig FcRn with pig …; assay: SPR, albumin over immobilized His-FcRn, pH 5.5, 1:1 Langmuir
Procedure: as §1, §2
(§4) The soluble FcRn receptors were synthesized by GeneArt and expressed in HEK cells. The soluble FcRn contained a HIS-tag on the C-terminal of the Beta-chain instead of a GST on the heavy chain and the beta-chain used was the native beta-chain of the animal (see Materials and Method section for the corresponding sequences). The soluble FcRn was purified by a HIS trap column followed by an additional purification using an IgG column. The soluble FcRn receptor was diluted to 20 μg/mL. The phosphate buffer used as running buffer in the SPR assay was at pH 5.5 instead of pH 6.0. […] 1:1 Langmuir or Steady state model was used.

[8] = molecular target: T7, Soluble cynomolgus macaque FcRn with cynomolgus beta2-microglobulin, HIS-tagged (cynomolgus macaque, UniProt Q8SPV9 24-297; Q6T672 21-119); assay: as above
T7 construct: Synthesized by GeneArt, expressed in HEK cells; also called CynoFcRn; Cyno FcRn; not shown: HIS-tag on the C-terminal of the beta-chain
Procedure: as §1, §2, §4

[9] = molecular target: T2, Soluble guinea pig FcRn with guinea pig …; assay: as above
Procedure: as §1, §2, §4

[10] = molecular target: T7, Soluble cynomolgus macaque FcRn with …; assay: SPR, pH 5.5; against CSA on cyno FcRn by the values (column head says PSA)
Procedure: as §1, §2, §3

Binder	Fold > PSA [6] [fold]	Kd [7] [nM]	koff [7] [s⁻¹]	kon [7] [M⁻¹ s⁻¹]	Kd [8] [nM]	koff [8] [s⁻¹]	kon [8] [M⁻¹ s⁻¹]	Kd [9] [nM]	koff [9] [s⁻¹]	kon [9] [M⁻¹ s⁻¹]	Fold > PSA [10] [fold]	further results
B1												Kd [1]: 800 nM; koff [1]: 0.0122 s⁻¹; kon [1]: 16100 M⁻¹ s⁻¹; Kd [2]: 1300 nM; koff [2]: 0.0066 s⁻¹; kon [2]: 4900 M⁻¹ s⁻¹; Kd [3]: 1750 nM; koff [3]: 0.013 s⁻¹; kon [3]: 7400 M⁻¹ s⁻¹; Kd [4]: 2200 nM; koff [4]: 0.022 s⁻¹; kon [4]: 10000 M⁻¹ s⁻¹; Kd [5]: 1000 nM
B2	525	400	0.0121	27800	1000	0.0055	4600	10900	0.0628	5800	35	
B3	525	400	0.0136	34500	1000	0.0059	4900	13000	0.0768	5700	35	
